In PubChem BioAssay (NCATS):
The inconclusive results got no clear call from the source; some entries with a clear call stand among them for comparison. A potency beside an inconclusive call is a rough fit, not a confirmed value. The source made the active and inactive calls. The call rests on the fitted dose curve; in most records, active means well fitted cell-killing curve with a large enough effect; inconclusive means small, poorly fitted or top-dose-only effect, or effect the other way; inactive means no such curve, though single readings can be large or run the other way.

Assay: Viability qHTS for spleen associated tyrosine kinase inhibitor (SYKi) naive MV4-11 cells (AID 1963823); further: nearly all actives have a fitted effect of over 40% in size
Conditions: MV4-11 AML viability, CellTiter-Glo luminescence, 72 h; viability (% of control): at 45 µM (top of the series)
Procedure, shortened: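 Compounds were dispensed acoustically onto plates, MV4-11 cells (SYKi-naive) added at 500 per well, and plates incubated 72 hr at 37 C. CellTiter-Glo was added and luminescence measured after 10 min.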
Potency means the concentration at half of the fitted maximal effect; tags describe the fitted curve by direction and shape.

SMILES	Potency	viability (% of control)
CC(=O)O[C@@H]1CC[C@@]2(C)[C@H](CC[C@@H]3[C@@H]2C[C@H](OC(C)=O)[C@]2(C)[C@@H](C(C)=O)CC[C@@H]32)C1	active: 8.2 µM	–
Cn1cc[nH]c1=S	–	inactive: 94%
COc1cccc(OC)c1-c1ccc(C[C@H](NC(=O)c2c(Cl)cccc2Cl)C(=O)O)cc1	–	inactive: 90.1%
O=C1NC(=O)c2cc(Nc3ccccc3)c(Nc3ccccc3)cc21	inconclusive: 10.3 µM [cytotoxic, partial curve]	–
CC[C@@H](N)CNc1ccnc(-c2cc(-c3cnn(C)c3)ccc2O)n1	active: 0.92 µM	–
Nc1nc(COC(=O)c2ccc([N+](=O)[O-])cc2)nc(Nc2ccccc2)n1	–	inactive: 27.4%
OCC(CO)(CO)NCC(O)Cn1c2ccc(Cl)cc2c2cc(Cl)ccc21 (stereo not given)	active: 20.6 µM	–
COc1cc(CO)ccc1O[C@@H]1O[C@H](CO)[C@@H](O)[C@H](O)[C@H]1O	–	inactive: 79.8%
CC(=C(CCOC(=O)C(C)C)SSC(CCOC(=O)C(C)C)=C(C)N(C=O)Cc1cnc(C)nc1N)N(C=O)Cc1cnc(C)nc1N	inconclusive: 21.1 µM [cytotoxic, partial curve]	–
O=C1NC(=NCc2cccs2)S/C1=C/c1ccc2ncccc2c1	inconclusive: 0.92 µM [cytotoxic, full curve]	–
CC(=O)c1ccc2c(c1)C(O)C(C(C)(C)O)O2 (stereo not given)	–	inactive: 79.4%
O=c1[nH]c2cccc(N3CCN(Cc4ccc(-c5ccccc5)cc4)CC3)c2o1	inconclusive: 20.6 µM [cytotoxic, partial curve]	–
O=C(O)Cc1cn(C2OCC(O)C(O)C2O[C@@H]2O[C@H](CO)[C@@H](O)[C@H](O)[C@H]2O)c2ccccc12 (stereo not given in full)	–	inactive: 82.6% [at 17.3 µM]
CNc1ccc([N+](=O)[O-])c(Nc2ccc3[nH]ncc3c2)n1	active: 2.59 µM	–
C=C1CC[C@H]2[C@@](C)(CCC[C@@]2(C)C(=O)O)[C@@H]1CCC(C)CCO (stereo not given in full)	–	inactive: 85.6%
C/C=C/[C@@H]1C=C[C@@H]2C[C@H](C)CC[C@H]2[C@]1(C)/C(O)=C1/C(=O)[C@@H](CO)N(C)C1=O	active: 14.3 µM	–
NC(N)=NC(=O)c1cnn(-c2cccc3ncccc23)c1C1CC1	inconclusive: 5.8 µM [cytotoxic, full curve]	–
CN(C(=O)c1c(O)c2ccccc2n(C)c1=O)c1ccccc1	inconclusive: 13.3 µM [cytotoxic, partial curve, poor fit] and inactive	–
C[C@@H](O)[C@H](NC(=O)c1ccc(C#Cc2ccc(CN3CCOCC3)cc2)cc1)C(=O)NO	active: 23.1 µM	–
O=C1CCCC2=C1C(c1ncccc1Br)N=C(Nc1nc3ccccc3o1)N2 (stereo not given)	inconclusive: 2.59 µM [cytotoxic, full curve]	–

SMILES	Potency	viability (% of control)
C/C(=C\C(=O)C(C)C1CCC2C3=C(CCC21C)C1(C)CCC(=O)C(C)(C)C1(O)CC3)C(C)(C)O (stereo not given)	inconclusive: 8.93 µM [cytotoxic, partial curve]	–
C/C=C1/[C@H](O[C@@H]2O[C@H](CO)[C@@H](O)[C@H](O)[C@H]2O)OC=C(C(=O)OC)[C@H]1CC(=O)OCCc1ccc(O)c(O)c1	–	inactive: 79.1% [at 17.3 µM]
CC1(CO)CC[C@]2(C(=O)O[C@@H]3O[C@H](CO)[C@@H](O)[C@H](O)[C@H]3O)CC[C@]3(C)C(=CCC4[C@@]5(C)C[C@H](O)[C@H](O[C@@H]6OC[C@@H](O)[C@H](O)[C@H]6O)[C@@](C)(CO)C5CC[C@]43C)C2C1 (stereo not given in full)	–	inactive: 88.9% [at 9.25 µM]
C=C1CCC2C(OC(=O)C2(O)COC(C)=O)C2C(=C)C(O)CC12 (stereo not given)	–	inactive: 59.8%
O=C(OC1CN2CCC1CC2)N1CCc2ccccc2C1c1ccccc1 (stereo not given)	active: 18.4 µM	–
Cc1cc(OCCOCC[N+](C)(C)Cc2ccccc2)ccc1C(C)(C)CC(C)(C)C	active: 3.35 µM	–
O=C1Cc2c([nH]c3ccc([N+](=O)[O-])cc23)-c2ccccc2N1	inconclusive: 0.563 µM [cytotoxic, full curve]	–
Cc1ccc(NS(=O)(=O)c2cc3c(cc2NC(C)CO)NC(=O)CC3)cc1C (stereo not given)	active: 12.9 µM	–
CCn1c(-c2nonc2N)nc2c(C#CCO)ncc(OCCCN)c21	active: 0.58 µM	–
CC(C)=CCC[C@](C)(O[C@@H]1O[C@H](CO)[C@@H](O)[C@H](O)[C@H]1O)[C@H]1CC[C@]2(C)[C@@H]1[C@H](O)CC1[C@@]3(C)CC[C@H](O)C(C)(C)C3[C@@H](O[C@@H]3O[C@H](CO)[C@@H](O)[C@H](O)[C@H]3O)C[C@]12C (stereo not given in full)	–	inactive: 95.8% [at 17.3 µM]
C=C1[C@@H](C2=CC(=O)OC2)CC[C@@]2(O)[C@@H]1CC1[C@H]2CC[C@@H]2C[C@@H](O[C@H]3O[C@@H](C)[C@@H](O[C@@H]4O[C@H](CO[C@@H]5O[C@H](CO)[C@@H](O)[C@H](O)[C@H]5O)[C@@H](O)[C@H](O)[C@H]4O)[C@H](OC)[C@H]3O)CC[C@]12C (stereo not given in full)	active: 2.19 µM	–
COc1cc(NS(C)(=O)=O)ccc1Nc1c2ccccc2nc2ccccc12	inconclusive: 0.468 µM [cytotoxic, full curve]	–
C=C1C(=O)OC2/C=C(\CO)CC/C=C(\C=O)C(OC)C(OC(=O)C(C)CC)C12 (stereo not given)	active: 10 µM	–
COc1ccnc(CS(=O)c2nc3cc(OC(F)F)ccc3[nH]2)c1OC (stereo not given)	inconclusive: 1.16 µM [cytotoxic, full curve, poor fit]	–
COc1ncc(Nc2ncc([C@@H](C)N3CCN(S(C)(=O)=O)CC3)cc2-c2nc(C)nc(N)n2)cc1F	inconclusive: 0.0291 µM [cytotoxic, full curve, poor fit]	–
CC(=O)OC(C)(C)/C=C/C(=O)C(C)(O)C1C(O)CC2(C)C3CC=C(C(C)(C)C(=O)O)C(CC(=O)O)C3(C)C(=O)CC12C (stereo not given)	inconclusive: 4.85 µM [cytotoxic, single point]	–
CC1=C(C/C=C(\C)CCC[C@H](C)CCC[C@H](C)CCCC(C)C)C(=O)c2ccccc2C1=O	–	inactive: 67.3%
COc1cc2ncnc(Nc3ccc(O)cc3)c2cc1OC	active: 3.26 µM	–
CC1(CO)CC2C(O)C3=C(CC(C)(O)C2C1)C(=O)OC3 (stereo not given)	–	inactive: 93%
CN(C)c1nc(NC2CCC(NCCc3ccc(Br)cc3OC(F)(F)F)CC2)nc2ccccc12 (stereo not given)	inconclusive: 0.731 µM [cytotoxic, full curve]	–
